In paper PMC10726135:
Some of the results follow. At the low end of the ranking the order means little. Measured with an extract: partners may take part in the binding.

Each sequence was assayed against T1, HNF4alpha8 (COS-7 nuclear extract) (UniProt P41235-5) (assay: protein-binding microarray). Settings: COS-7 nuclear extract on double-stranded Agilent 4x180k PBM; binding buffer, salt, pH and temperature not given; high values mean tight binding; double strand, one strand shown; sequences stand for … in …GCCTAGGGAGATTAGAGTATCGGTCGA.
T1 sequence: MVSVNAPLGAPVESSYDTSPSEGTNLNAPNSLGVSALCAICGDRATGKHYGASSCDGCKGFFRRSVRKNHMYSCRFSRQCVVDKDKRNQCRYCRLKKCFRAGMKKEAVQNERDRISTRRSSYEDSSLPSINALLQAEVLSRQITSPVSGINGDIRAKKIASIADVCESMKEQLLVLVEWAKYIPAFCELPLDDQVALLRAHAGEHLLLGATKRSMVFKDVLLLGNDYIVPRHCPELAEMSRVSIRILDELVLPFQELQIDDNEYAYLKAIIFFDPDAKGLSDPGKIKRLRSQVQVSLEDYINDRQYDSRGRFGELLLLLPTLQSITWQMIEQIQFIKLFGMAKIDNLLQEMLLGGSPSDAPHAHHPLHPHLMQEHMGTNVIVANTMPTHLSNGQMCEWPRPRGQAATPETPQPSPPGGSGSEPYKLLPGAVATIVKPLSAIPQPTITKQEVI
ATTCCAGGAAGGTCTGATGGGCCAGGCAGG gave a binding signal (log2 normalized intensity) of -1.43. Work on GTGGTGTCTTACCGGGATTTTGTTGGGGAA yielded a binding signal (log2 normalized intensity) of 1.26. TTGAAATGTTATCATTAGGGAAAATAGTGA showed a binding signal (log2 normalized intensity) of 0.442. GCCGGCTCTGAAGAGAACGGCTGATTCTGA was tested, and the binding signal (log2 normalized intensity) was -1.23. In the case of CCTGGGTCAAATTGGTGCTTTCATCCCCTG, the binding signal (log2 normalized intensity) is reported as 1.76. For AAAGTGACCCTCTGCCCCCTACACAGAGGA, the binding signal (log2 normalized intensity) was 4.75. Work on TCCTCCTTTTTTTTTTCAAGTGTTAGCTGT yielded a binding signal (log2 normalized intensity) of 1.78. In the case of GTGACGGAGGTGACCTTTGGTTGTCCTTAC, the binding signal (log2 normalized intensity) is reported as 4.94. AACACCAGCAACCGCCTACCTTTGGACTTC showed a binding signal (log2 normalized intensity) of 6.25. For ACGACTTGCTTATCTTACGCAACTGAAATT, the binding signal (log2 normalized intensity) was -1.3. GCACGAAAAACAGGTAGTTTGCAGTCTGAG showed a binding signal (log2 normalized intensity) of -1.34. For GCTCAGTGCCTTCTCTAATGACTGATAATT, the binding signal (log2 normalized intensity) was 0.878. GGCATCATAAACTCCAACTCAGCCCCCAGC was tested, and the binding signal (log2 normalized intensity) was 4.54. ACTGAGAAACCAAGATCCTAGTCTTTAGAG gave a binding signal (log2 normalized intensity) of -1.35. TATTGGGAGGCCCATTGTGCTGGGGGCAAG gave a binding signal (log2 normalized intensity) of 1.93. AGTAGGCACTATTATCCCCCTATCCCAAGA was tested, and the binding signal (log2 normalized intensity) was 4.72. For TGTTTAGCCCAATAAAATCTGGCAGCTTAA, the binding signal (log2 normalized intensity) was -1.28. For GCAAAGATCAGTGAGAAGAGAAACACATGC, the binding signal (log2 normalized intensity) was -1.38. TCCTCTATCTTCAAAGCCAGCAACGGTGAG showed a binding signal (log2 normalized intensity) of 0.0395. In the case of CAGTTGACCTTTGAACACCACAAGTTTGAA, the binding signal (log2 normalized intensity) is reported as 6.74. Sequence ATCTTCCAAATTCTCCCAGGCCATACAGAT has a binding signal (log2 normalized intensity) of 0.992. Work on TTATTTAAGATTGAGAACTTTGACACCGAG yielded a binding signal (log2 normalized intensity) of 3.18. With GGCCAGGAACGTCACACTGAAAGCTATCCC the binding signal (log2 normalized intensity) was -1.38. Sequence GAAACTTATTGTGAACTGGAGCAAAGGTCA has a binding signal (log2 normalized intensity) of 5.97. GGGTGTCAAAGCCCAACCAGGATAGGGAGG showed a binding signal (log2 normalized intensity) of -1.28. Work on TGTACAGGACCATGTTCTCCTAAAGTGACT yielded a binding signal (log2 normalized intensity) of -1.19. Sequence CTGCTTATCTAGGATGAGAATCCACCTGCC has a binding signal (log2 normalized intensity) of -1.26. AAAATTCAACAAGACCCTGCCCTTTCCCCC showed a binding signal (log2 normalized intensity) of 4.65. Work on TAATTTAGATATCGCTCCAAGAGCCAACAG yielded a binding signal (log2 normalized intensity) of -1.35. CTTTTATAAGGGGCAGCAAACCTACCTGAA was tested, and the binding signal (log2 normalized intensity) was -1.32. With GTAAACTCCCTTTGATGCGGTCAGAGTTCA the binding signal (log2 normalized intensity) was 3.65. In the case of GTTATGGCACCAAGAAACCTTTCCCTCTCT, the binding signal (log2 normalized intensity) is reported as -1.02. Work on TGAAACTATAAACTTGGTTACAGGACCAGG yielded a binding signal (log2 normalized intensity) of -1.26. With GATCAAAGGTCGGTTTTAGGACAACATGAG the binding signal (log2 normalized intensity) was 5.07. Sequence CCTCAAAGTGGACTTTAGAACCCAAATAGA has a binding signal (log2 normalized intensity) of 6.63. ATACAACCTCTGTAATAACTGCAGTGCCAC showed a binding signal (log2 normalized intensity) of -0.214. GACCTTTGCTCATGACTATTCTCTAAACTC was tested, and the binding signal (log2 normalized intensity) was 4.71. AGTTTGGAGATGCCGTTAAGCAGATAAGGT was tested, and the binding signal (log2 normalized intensity) was 0.402. Sequence AACAAAGGTCGGTGGTATGTGTGTGCTTTA has a binding signal (log2 normalized intensity) of 2.2. Work on AAGGACCTCCTGAGATAGGTATGATAACCC yielded a binding signal (log2 normalized intensity) of 0.362. AGAAACTCAATCGCCTTTTATTTTTCCCCT was tested, and the binding signal (log2 normalized intensity) was 1.77. Sequence GAATTTGGTTACTCGCCTTAGAAATATTCA has a binding signal (log2 normalized intensity) of -1.41. AATTTATAGGCACTAGGTGTTCCTCAGCCT was tested, and the binding signal (log2 normalized intensity) was -1.33. CATGGAGGATTTAGATAACATCTTTTCTCA gave a binding signal (log2 normalized intensity) of -1.26. ACAACGAGGTGCCAGAAACCTGACTTCCAA gave a binding signal (log2 normalized intensity) of -1.26. Sequence AGACTCAACACCCAGGCTTATCTCACTCCA has a binding signal (log2 normalized intensity) of -1.47. In the case of TCACTATTGACATTTGGGGTCAGATAATTC, the binding signal (log2 normalized intensity) is reported as 3.25. With AAAGACCCTAAACCTGTTGGGTCAGGCTGC the binding signal (log2 normalized intensity) was -1.01. In the case of TCACTTTTTATCTGCCTTTTATCTATTTGT, the binding signal (log2 normalized intensity) is reported as 1.4. Work on GCCGATCACTGGCCCAGCTGGTTTGAAGAA yielded a binding signal (log2 normalized intensity) of -1.16. In the case of CCCCTTGAGACTTTAATCTCTCCTCTGACA, the binding signal (log2 normalized intensity) is reported as 0.306. AAAGAGGGCCCCATCATGTGTACAGAGCTG showed a binding signal (log2 normalized intensity) of -1.19. Sequence GCAGGGGGCCAAGGGATACCCTGAGAGATC has a binding signal (log2 normalized intensity) of -1.24. TATGACCTTTGCTTTTCAAGATTTTACCTA was tested, and the binding signal (log2 normalized intensity) was 2.72. AAGCCATAGTTAACCCAGAAGACTGTCAAC showed a binding signal (log2 normalized intensity) of -1.24. GGACAAGGGGGAGGAGAGTACTGTCTCTTA showed a binding signal (log2 normalized intensity) of -1.13. AGCCACCAGTGCAAATATAAAAGGCTGTCA was tested, and the binding signal (log2 normalized intensity) was -1.25. Sequence AACCTCCCTCCAAAATATCTCACTCCCACA has a binding signal (log2 normalized intensity) of 1.43. Sequence TTTGCAGTAGGATAAGTCCTTCCAAAGTCC has a binding signal (log2 normalized intensity) of 4.93. GCTCAGGGAATGTGGGTCCACATTCCTGAT showed a binding signal (log2 normalized intensity) of 1.97. Sequence TTAGATATGGCTTATACTTGAGGTATGATG has a binding signal (log2 normalized intensity) of 1.68. In the case of AGTGGAATGTGCCCTTTGACCTCTCTCTCC, the binding signal (log2 normalized intensity) is reported as 8.33. In the case of CAAACACACAATATTGACATTCCAGCCTCC, the binding signal (log2 normalized intensity) is reported as -1.3. Work on TGCCCTCTTGTCCTTCCCCTTTTGTGTTTG yielded a binding signal (log2 normalized intensity) of 2.97. For CCTCTAGTGGCCCAGTGTCTCTGGGCGCTG, the binding signal (log2 normalized intensity) was -1.42. AGAAACCTCAAAGGTTAGGGGGATTCTGGC gave a binding signal (log2 normalized intensity) of -1.05. GGCTAAGGTCACCATGACCATAAACCACAA was tested, and the binding signal (log2 normalized intensity) was -1.35. For GGTGAACTCAGTCCTTTCAGGACACCTTCA, the binding signal (log2 normalized intensity) was -1.05. With TATCTGTTAGGGCCATTTGGTCTGTAGTGT the binding signal (log2 normalized intensity) was 2.06. For CAGAGATACTATTGATAACATCTAACAGCT, the binding signal (log2 normalized intensity) was -1.48. For GGATGCCCTTTGACCTCTGCTTCCTGCTAC, the binding signal (log2 normalized intensity) was 6.5. For TGGGCTTGCCTAAGACATGCTCGCAGCTGC, the binding signal (log2 normalized intensity) was -1.31. Work on GCTTCTCCTGGCTTTAGATATCAGAAATGC yielded a binding signal (log2 normalized intensity) of 0.508. GTACACAAAGGTATCAGGGCTCAGGAATGT gave a binding signal (log2 normalized intensity) of -1.18. In the case of GTAACCACAGTACTGTCTTTTTGCCACTAG, the binding signal (log2 normalized intensity) is reported as -1.46. AGGAGGAGGCCTAGGCAGTCCACAGACAAA was tested, and the binding signal (log2 normalized intensity) was -1.33. With TAGAATCTTAGGAAAGCACAGCTGATTGCT the binding signal (log2 normalized intensity) was -1.34. With CCCTGCCACTCTTTTTTAGACTTTGACCTC the binding signal (log2 normalized intensity) was 10.2. Work on GATGGTGAGTTCTGTCCTTTGTCCCACATC yielded a binding signal (log2 normalized intensity) of 3.05. Work on TGACTAGAGAGCAGGAGCCACCTGTCACTC yielded a binding signal (log2 normalized intensity) of -1.34. In the case of CTCTCAACTCAGTGAGGGCTATTGACAAAG, the binding signal (log2 normalized intensity) is reported as -1.04. Sequence TCAATTTACCTCTGCTCCCCCTGCCCTTCG has a binding signal (log2 normalized intensity) of 4.07. In the case of CTCAAGAAAGAGGTGGTTCTTTCTGAGTTG, the binding signal (log2 normalized intensity) is reported as 0.828. For ATGGGAAGCCTCAGGAGTTGGAGGAACAGG, the binding signal (log2 normalized intensity) was -1.41. GGGCAGTGTTTGCCCAGCTTGAATCACTCA gave a binding signal (log2 normalized intensity) of -1.38. For GCCCCTGGGTCGTTGGTGCTCCCCCACCCT, the binding signal (log2 normalized intensity) was 4.41. CCCATTCCTTCTCACCGGGTGGAGCCTCAC was tested, and the binding signal (log2 normalized intensity) was 0.614. Sequence GTCAAATTGGTGCTTTCATCCCCTGCATCC has a binding signal (log2 normalized intensity) of 1.71. Sequence ACTGAGCTTTAGATAGCTGTTAAATGGAGT has a binding signal (log2 normalized intensity) of 0.221. AAATAACGAAGGCATTCTTAACAAAACCTG gave a binding signal (log2 normalized intensity) of -1.22. For TCACTGTAACCTTTGCCCCCCAAGTTGAAG, the binding signal (log2 normalized intensity) was 7.68. In the case of GCCTTATCACCATTCAGATAAATGGTGTAG, the binding signal (log2 normalized intensity) is reported as -1.39. With TAAATGCCTCCCCCTCTTTATCTCCTGGAA the binding signal (log2 normalized intensity) was 2.84.
